From the supplement of paper PMC8728848
Some of the results follow.

Assays:
Assay in all cases: glycan array binding signal (z-score within array); higher = stronger binding
Settings in all cases: glycan notation: IUPAC condensed, linker removed
[1] = molecular target: Gal(b1-3)[Fuc(a1-4)]GlcNAc(b1-2)Man
Summary of the method: (§1)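 The binding signal is a Z-score computed within each array and averaged over linkers. Arrays of the same protein sequence at different concentrations or buffers were also averaged together. Data originate from 3228 arrays in the Consortium for Functional Glycomics database, kept only where the protein sequence was available.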

[2] = molecular target: Gal(b1-3)[Fuc(a1-4)]GlcNAc(b1-2)Man(a1-3)[Gal(b1-3)[Fuc(a1-4)]GlcNAc(b1-2)Man(a1-6)]Man(b1-4)GlcNAc(b1-4)GlcNAc
Summary of the method: as §1

[3] = molecular target: Gal(b1-3)[Fuc(a1-4)]GlcNAc(b1-2)Man(a1-3)[Gal(b1-3)[Fuc(a1-4)]GlcNAc(b1-2)Man(a1-6)]Man(b1-4)GlcNAc(b1-4)[Fuc(a1-6)]GlcNAc
Summary of the method: as §1

[4] = molecular target: Gal(b1-3)[Fuc(a1-4)]GlcNAc(b1-3)Gal(b1-3)[Fuc(a1-4)]GlcNAc
Summary of the method: as §1

[5] = molecular target: Gal(b1-3)[Fuc(a1-4)]GlcNAc(b1-3)Gal(b1-4)GlcNAc
Summary of the method: as §1

[6] = molecular target: Gal(b1-3)[Fuc(a1-4)]GlcNAc(b1-3)Gal(b1-4)[Fuc(a1-3)]GlcNAc
Summary of the method: as §1

[7] = molecular target: Gal(b1-3)[Fuc(a1-4)]GlcNAc(b1-6)GalNAc
Summary of the method: as §1

[8] = molecular target: Gal(b1-3)[GlcNAc(b1-6)]GalNAc
Summary of the method: as §1

[9] = molecular target: Gal(b1-3)[Neu5Ac(a2-6)]GalNAc
Summary of the method: as §1

[10] = molecular target: Gal(b1-3)[Neu5Ac(a2-6)]GlcNAc(b1-4)Gal(b1-4)Glc
Summary of the method: as §1

[11] = molecular target: Gal(b1-3)[Neu5Ac(a2-6)]GlcNAc(b1-6)Gal(b1-4)Glc
Summary of the method: as §1

[12] = molecular target: Gal(b1-3)[Neu5Ac(b2-6)]GalNAc
Summary of the method: as §1

[13] = molecular target: Gal(b1-4)Gal
Summary of the method: as §1

[14] = molecular target: Gal(b1-4)GalNAc(a1-3)[Fuc(a1-2)]Gal(b1-4)GlcNAc
Summary of the method: as §1

[15] = molecular target: Gal(b1-4)GalNAc(b1-3)[Fuc(a1-2)]Gal(b1-4)GlcNAc
Summary of the method: as §1

[16] = molecular target: Gal(b1-4)Glc
Summary of the method: as §1

[17] = molecular target: Gal(b1-4)Glc6S
Summary of the method: as §1

[18] = molecular target: Gal(b1-4)GlcNAc
Summary of the method: as §1

[19] = molecular target: Gal(b1-4)GlcNAc(a1-6)Gal(b1-4)GlcNAc
Summary of the method: as §1

[20] = molecular target: Gal(b1-4)GlcNAc(b1-2)Man
Summary of the method: as §1

[21] = molecular target: Gal(b1-4)GlcNAc(b1-2)Man(a1-3)Man(b1-4)GlcNAc(b1-4)GlcNAc
Summary of the method: as §1

[22] = molecular target: Gal(b1-4)GlcNAc(b1-2)Man(a1-3)[Gal(b1-4)GlcNAc(b1-2)Man(a1-6)]Man(b1-4)GlcNAc(b1-4)GlcNAc
Summary of the method: as §1

[23] = molecular target: Gal(b1-4)GlcNAc(b1-2)Man(a1-3)[Gal(b1-4)GlcNAc(b1-2)Man(a1-6)]Man(b1-4)GlcNAc(b1-4)[Fuc(a1-6)]GlcNAc
Summary of the method: as §1

[24] = molecular target: Gal(b1-4)GlcNAc(b1-2)Man(a1-3)[Gal(b1-4)GlcNAc(b1-2)Man(a1-6)][Gal(b1-4)GlcNAc(b1-4)]Man(b1-4)GlcNAc(b1-4)[Fuc(a1-6)]GlcNAc
Summary of the method: as §1

[25] = molecular target: Gal(b1-4)GlcNAc(b1-2)Man(a1-3)[Gal(b1-4)GlcNAc(b1-2)Man(a1-6)][GlcNAc(b1-4)]Man(b1-4)GlcNAc(b1-4)[Fuc(a1-6)]GlcNAc
Summary of the method: as §1

[26] = molecular target: Gal(b1-4)GlcNAc(b1-2)Man(a1-3)[Gal(b1-4)GlcNAc(b1-2)][GlcNAc(b1-4)]Man(b1-4)GlcNAc(b1-4)GlcNAc
Summary of the method: as §1

[27] = molecular target: Gal(b1-4)GlcNAc(b1-2)Man(a1-3)[GlcNAc(b1-2)Man(a1-6)]Man(b1-4)GlcNAc(b1-4)GlcNAc
Summary of the method: as §1

[28] = molecular target: Gal(b1-4)GlcNAc(b1-2)Man(a1-3)[GlcNAc(b1-4)][Gal(b1-4)GlcNAc(b1-2)Man(a1-6)]Man(b1-4)GlcNAc(b1-4)GlcNAc
Summary of the method: as §1

[29] = molecular target: Gal(b1-4)GlcNAc(b1-2)Man(a1-3)[Man(a1-6)]Man(b1-4)GlcNAc(b1-4)GlcNAc
Summary of the method: as §1

[30] = molecular target: Gal(b1-4)GlcNAc(b1-2)Man(a1-6)Man(b1-4)GlcNAc(b1-4)GlcNAc
Summary of the method: as §1

[31] = molecular target: Gal(b1-4)GlcNAc(b1-2)Man(a1-6)[GlcNAc(b1-2)Man(a1-3)]Man(b1-4)GlcNAc(b1-4)GlcNAc
Summary of the method: as §1

[32] = molecular target: Gal(b1-4)GlcNAc(b1-2)Man(a1-6)[Man(a1-3)]Man(b1-4)GlcNAc(b1-4)GlcNAc
Summary of the method: as §1

[33] = molecular target: Gal(b1-4)GlcNAc(b1-2)[Gal(b1-4)GlcNAc(b1-4)]Man(a1-3)[Gal(b1-4)GlcNAc(b1-2)Man(a1-6)]Man(b1-4)GlcNAc(b1-4)GlcNAc
Summary of the method: as §1

[34] = molecular target: Gal(b1-4)GlcNAc(b1-2)[Gal(b1-4)GlcNAc(b1-4)]Man(a1-3)[Gal(b1-4)GlcNAc(b1-2)[Gal(b1-4)GlcNAc(b1-6)]Man(a1-6)]Man(b1-4)GlcNAc(b1-4)GlcNAc
Summary of the method: as §1

[35] = molecular target: Gal(b1-4)GlcNAc(b1-2)[Gal(b1-4)GlcNAc(b1-4)]Man(a1-3)[GlcNAc(b1-4)][Gal(b1-4)GlcNAc(b1-2)Man(a1-6)]Man(b1-4)GlcNAc(b1-4)GlcNAc
Summary of the method: as §1

[36] = molecular target: Gal(b1-4)GlcNAc(b1-2)[Gal(b1-4)GlcNAc(b1-4)]Man(a1-3)[GlcNAc(b1-4)][Gal(b1-4)GlcNAc(b1-2)[Gal(b1-4)GlcNAc(b1-6)]Man(a1-6)]Man(b1-4)GlcNAc(b1-4)GlcNAc
Summary of the method: as §1

[37] = molecular target: Gal(b1-4)GlcNAc(b1-2)[Gal(b1-4)GlcNAc(b1-6)]Man(a1-6)[Gal(b1-4)GlcNAc(b1-2)Man(a1-3)]Man(b1-4)GlcNAc(b1-4)GlcNAc
Summary of the method: as §1

[38] = molecular target: Gal(b1-4)GlcNAc(b1-2)[Gal(b1-4)GlcNAc(b1-6)]Man(a1-6)[Gal(b1-4)GlcNAc(b1-2)Man(a1-3)]Man(b1-4)GlcNAc(b1-4)[Fuc(a1-6)]GlcNAc
Summary of the method: as §1

B1: Gal 4 (Mus musculus), P56470 (protein)
chain: MAYVPAPGYQPTYNPTLPYYQPIPGGLNVGMSVYIQGVASEHMKRFFVNFVVGQDPGSDVAFHFNPRFDGWDKVVFNTLQGGKWGSEERKRSMPFKKGAAFELVFIVLAEHYKVVVNGNPFYEYGHRLPLQMVTHLQVDGDLQLQSINFIGGQPLRPQGPPMMPPYPGPGHCHQQLNSLPTMEGPPTFNPPVPYFGRLQGGLTARRTIIIKGYVPPTGKSFAINFKVGSSGDIALHINPRMGNGTVVRNSLLNGSWGSEEKKITHNPFGPGQFFDLSIRCGLDRFKVYANGQHLFDFAHRLSAFQRVDTLEIQGDVTLSYVQI
glycan array binding signal (z-score) [1]: -0.296 | glycan array binding signal (z-score) [2]: -0.179 | glycan array binding signal (z-score) [3]: -0.221 | glycan array binding signal (z-score) [4]: -0.252 | glycan array binding signal (z-score) [5]: -0.242 | glycan array binding signal (z-score) [6]: -0.228 | glycan array binding signal (z-score) [7]: -0.318 | glycan array binding signal (z-score) [8]: -0.234 | glycan array binding signal (z-score) [9]: -0.238 | glycan array binding signal (z-score) [10]: -0.283 | glycan array binding signal (z-score) [11]: -0.176 | glycan array binding signal (z-score) [12]: -0.245 | glycan array binding signal (z-score) [13]: -0.224 | glycan array binding signal (z-score) [14]: 4.23 | glycan array binding signal (z-score) [15]: -0.205 | glycan array binding signal (z-score) [16]: -0.217 | glycan array binding signal (z-score) [17]: 0.02 | glycan array binding signal (z-score) [18]: -0.233 | glycan array binding signal (z-score) [19]: -0.229 | glycan array binding signal (z-score) [20]: -0.289 | glycan array binding signal (z-score) [21]: -0.198 | glycan array binding signal (z-score) [22]: -0.226 | glycan array binding signal (z-score) [23]: -0.2 | glycan array binding signal (z-score) [24]: -0.291 | glycan array binding signal (z-score) [25]: -0.285 | glycan array binding signal (z-score) [26]: -0.192 | glycan array binding signal (z-score) [27]: -0.199 | glycan array binding signal (z-score) [28]: -0.292 | glycan array binding signal (z-score) [29]: -0.203 | glycan array binding signal (z-score) [30]: -0.231 | glycan array binding signal (z-score) [31]: -0.238 | glycan array binding signal (z-score) [32]: -0.209 | glycan array binding signal (z-score) [33]: -0.227 | glycan array binding signal (z-score) [34]: -0.208 | glycan array binding signal (z-score) [35]: -0.164 | glycan array binding signal (z-score) [36]: -0.256 | glycan array binding signal (z-score) [37]: -0.246 | glycan array binding signal (z-score) [38]: -0.342
